These results are taken from article PMC4336329 (PLoS ONE, 2015).

The structures appear in SMILES notation. In all, about 310,000 compounds went through this assay and about 14,000 (4.5%) showed an effect of 50% or more. The effect is printed as a negative number. The list shows a part of the results.
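Note: peak tail current of the secondary pulse compared with the same well before compound.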

human ether-à-go-go-related gene (hERG) potassium channel, sequence (Q12809 whole entry, looked up): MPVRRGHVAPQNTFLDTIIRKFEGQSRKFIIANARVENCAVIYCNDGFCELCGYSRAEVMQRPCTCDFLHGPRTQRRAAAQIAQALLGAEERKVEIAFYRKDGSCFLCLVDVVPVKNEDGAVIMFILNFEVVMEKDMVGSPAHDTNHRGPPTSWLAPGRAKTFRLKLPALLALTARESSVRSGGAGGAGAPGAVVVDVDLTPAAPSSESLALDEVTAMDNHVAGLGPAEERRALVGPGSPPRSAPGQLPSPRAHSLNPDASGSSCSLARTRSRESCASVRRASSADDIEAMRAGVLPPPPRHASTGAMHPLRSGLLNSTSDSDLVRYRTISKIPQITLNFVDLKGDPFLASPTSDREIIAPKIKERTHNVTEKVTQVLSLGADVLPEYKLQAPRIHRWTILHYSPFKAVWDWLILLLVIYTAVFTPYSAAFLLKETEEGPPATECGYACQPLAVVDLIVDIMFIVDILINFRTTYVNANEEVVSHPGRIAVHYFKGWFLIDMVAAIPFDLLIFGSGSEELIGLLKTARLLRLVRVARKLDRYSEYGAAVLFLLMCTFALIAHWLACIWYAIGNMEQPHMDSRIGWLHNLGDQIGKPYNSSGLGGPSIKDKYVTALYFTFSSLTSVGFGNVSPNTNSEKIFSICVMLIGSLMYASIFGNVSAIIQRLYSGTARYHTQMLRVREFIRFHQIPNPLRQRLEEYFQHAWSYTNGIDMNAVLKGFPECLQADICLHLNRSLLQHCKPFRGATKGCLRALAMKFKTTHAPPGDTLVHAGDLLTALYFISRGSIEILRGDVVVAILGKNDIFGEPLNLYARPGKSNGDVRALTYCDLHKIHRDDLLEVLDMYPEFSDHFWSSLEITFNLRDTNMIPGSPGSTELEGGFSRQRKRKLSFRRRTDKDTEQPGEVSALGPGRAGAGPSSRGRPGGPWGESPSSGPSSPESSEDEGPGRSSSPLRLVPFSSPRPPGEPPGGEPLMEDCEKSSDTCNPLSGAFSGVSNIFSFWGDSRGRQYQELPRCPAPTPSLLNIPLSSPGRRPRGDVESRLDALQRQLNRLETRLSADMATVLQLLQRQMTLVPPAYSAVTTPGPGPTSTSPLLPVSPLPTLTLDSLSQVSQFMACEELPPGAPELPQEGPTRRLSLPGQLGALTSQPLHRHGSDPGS

This assay concerns the target human ether-à-go-go-related gene (hERG) potassium channel (human, UniProt Q12809). The experiment in a line: primary screen, population patch clamp on CHO cells stably expressing hERG.
In the case of `COc1ccc(S(=O)(=O)N2CCOCC2)cc1NC(=O)c1ccc(-n2nc(C)cc2C)cc1`, the “hERG current change (%, negative = inhibition) at 10uM” value is listed as -2.12%. In the case of `Cc1ccc(N(CC(=O)NC(C)c2ccccc2)S(=O)(=O)c2c(C)noc2C)cc1` (stereo not shown) it was 15.1%.

`COc1ccc(C2C3=C(CC(C)(C)CC3=O)Nc3c2c(=O)[nH]c2nc(C)nn32)cc1` (stereo not shown): the “hERG current change (%, negative = inhibition) at 10uM” value came out at 6.49%. Next, `COC(=O)c1sc(NC(=S)NC(=O)c2cc(OC)c(OC)c(OC)c2)nc1C`: 1.18%; `CCOC(=O)N1CCN(C(=O)C2CCN(S(=O)(=O)c3c(C)cc(C)cc3C)CC2)CC1`: -22.9%; `O=C(Nc1nnc(S(=O)(=O)N2CCCC2)s1)c1ccccc1Br`: 4.16%. Next, `Cc1ncc([N+](=O)[O-])n1CC(=O)Nc1ccccc1F`: 3.16%; `CC(CC(=O)Nc1nnc(CC(C)(C)C)s1)c1ccccc1` (stereo not shown): 23.6%. In the case of `COc1cccc(C(=O)N2CCN=C2SCc2cccnc2)c1OC`, the “hERG current change (%, negative = inhibition) at 10uM” value is given as 4.44%. Next, `O=C(COc1cc(O)c2c(=O)cc(-c3ccccc3)oc2c1)c1cccc([N+](=O)[O-])c1`: 7.62%; `CC(C)(CNC(=O)C1CCCN1C(=O)c1cccs1)N1CCOCC1` (stereo not shown): 19.5%. Next, `CN1CCc2c(sc(NC(=O)CS(=O)(=O)c3ccc(F)cc3)c2C(N)=O)C1.Cl`: -58.8%.

`CSCCC(NC(=O)c1ccccc1Br)C(=O)NCC1CCCCC1` (stereo not shown): the “hERG current change (%, negative = inhibition) at 10uM” value came out at 9.7%.

In the case of `O=c1ccn(CCc2c[nH]c3ccccc23)c2c1CCCC2`, the “hERG current change (%, negative = inhibition) at 10uM” value is on record as -11.5%. In the case of `CCC(C(=O)NC(C)c1ccccc1)C(=O)NC(C)c1ccccc1` (stereo not shown) it was 17%; in that of `CCCc1ncc(C(O)c2cccc3ccccc23)n1C` (stereo not shown), -22.6%. Next, `CSc1nc2nc(-c3ccc(F)cc3)c(CCN3CCN(C)CC3)cn2n1`: -2.66%; `O=[N+]([O-])c1ccc(/C=N/n2c(C3CCCCC3)n[nH]c2=S)cc1`: 18.6%.

`O=C(Cc1ccc(Cl)cc1)OCc1nnc(-c2ccccc2)o1`: the “hERG current change (%, negative = inhibition) at 10uM” value is recorded as 11.2%. In the case of `O=C(NNS(=O)(=O)c1ccc(F)cc1)C1CCN(S(=O)(=O)c2ccccc2)CC1` it was -2.74%.

Regarding `O=C1N=C(N2CCOCC2)S/C1=C\c1cccs1`, the “hERG current change (%, negative = inhibition) at 10uM” value came to 3.81%.

With `COC(=O)c1ccc(NC(=O)C(=O)N2CCN(C(=S)Nc3ccccc3OC)CC2)cc1`, the “hERG current change (%, negative = inhibition) at 10uM” value is listed as -13.4%. Next, `COc1cccc(NC(=O)N2CCN(c3ccc(C(F)(F)F)cn3)CC2)c1`: -3.19%.

As to `COC(=O)c1ccc(Cl)c(NC(=O)CN(c2ccc(OC)cc2)S(=O)(=O)c2ccccc2)c1`, the “hERG current change (%, negative = inhibition) at 10uM” value came to 3.49%. Next, `Cc1cc(-c2nn(-c3ccccc3F)cc2CNCCc2cnc[nH]2)c(C)s1`: -53.6%; `Cc1cc2oc(=O)cc(CN3CCCCC3C)c2cc1Cl` (stereo not shown): -0.834%; `O=C(N/N=C/c1cccc([N+](=O)[O-])c1)c1cccs1`: -16.5%. Next, `CCOc1ccc(NC(=O)CSc2nc3cccnc3n2CCOC)cc1`: -20.4%; `COCCNC(=O)c1ccccc1N(Cc1ccccc1)S(=O)(=O)c1ccccc1`: 6.15%; `O=C(N/N=C\c1c[nH]c2ccccc12)c1ccc(O)cc1`: 18.1%. Next, `O=C(Nc1ccc(Cl)c(Cl)c1)c1ccccc1`: -13.3%. As to `Cc1ccc(C)c(S(=O)(=O)N2CCN(C(=O)Cn3c(=O)cnc4ccccc43)CC2)c1`, the “hERG current change (%, negative = inhibition) at 10uM” value is on record as -10%.

Regarding `CN1/C(=C\C(=O)CSc2cccc[n+]2[O-])C(C)(C)c2ccccc21`, the “hERG current change (%, negative = inhibition) at 10uM” value came out at 26.3%. Next, `Cc1sc2ncnc(Sc3ccccc3C(=O)Nc3ccc(C#N)cc3)c2c1C`: -35.6%; `CC(=O)Nc1ccc(S(=O)(=O)N2CCCN(S(=O)(=O)c3ccc(NC(C)=O)cc3)CC2)cc1`: -0.406%; `COc1ccc(-n2nc(N)c(C(N)=O)n2)cc1`: 16.8%. Next, `Cc1cccc(OCC(=O)Nc2cc(NC(=O)COc3cccc(C)c3C)cc(C(=O)O)c2)c1C`: 23.6%. Next, `COC(=O)c1cc(-c2c(C)oc3cc(OC)ccc3c2=O)c(C)o1`: 6.28%; `O=C1C2CCCN2C(c2ccc(Cl)c(Cl)c2)N1c1ccccn1` (stereo not shown): -10%; `CCNC(=O)COC(=O)c1ccc(S(=O)(=O)N2CCCCCC2)cc1`: -10.3%. Turning to `COc1ccc(N2CC(C(=O)N/N=C/c3ccc([N+](=O)[O-])cc3)CC2=O)cc1` (stereo not shown), the “hERG current change (%, negative = inhibition) at 10uM” value is -59.5%. In the case of `CC1CCC2C(=O)N(c3cccc(C(=O)Nc4ccccc4Cl)c3)C(=O)C2C1` (stereo not shown), the “hERG current change (%, negative = inhibition) at 10uM” value came to 16.8%. For the compound `O=[N+]([O-])c1c(C(Cl)Cl)nn(-c2ccccc2)c1N1CCOCC1`, the “hERG current change (%, negative = inhibition) at 10uM” value is -6.68%.
